# Measurements taken from patent publication US20170088605A1.
# B1: P8D11 (antibody, human IgG1, lambda)
# heavy: QVQLVESGGTLVQPGGSLRLSCAASGFTFNNYWMTWVRQAPGKGLEWVANIKKDGSEKYYVDSVRGRFTISRDNAKNSLFLQMNSLRPEDTAVYFCATVRSGRYFALDDWGQGTLVTVSSASTKGPSVFPLAPSSKSTSGGTAALGCLVKDYFPEPVTVSWNSGALTSGVHTFPAVLQSSGLYSLSSVVTVPSSSLGTQTYICNVNHKPSNTKVDKRV[sequence of human IgG1 Fc omitted]
# light: QSVLTQPPSVSVAPGKTARITCGGDNIGSRPVHWYQQKPGQAPILVVYDDSNRPSGIPERFSGSNSGNTATLTISRVEAGDEADYYCQVWSSSTDHPFGGGTKVTVLGQPKAAPSVTLFPPSSEELQANKATLVCLISDFYPGAVTVAWKADSSPVKAGVETTTPSKQSNNKYAASSYLSLTPEQWKSHRSYSCQVTHEGSTVEKTVAPTECS
# B2: NEG447A (antibody, human IgG1, lambda)
# heavy: QVQLQESGPGLVKPSETLSLTCTVSGGSISRDYWSWVRQPPGAGLEWIGNIYYSGSTNYNPSLKSRVTISVATNKKQFSLKLTSVTAADTAVYYCARVPGCSSTSCIDGWFDPWGQGILVTVSSASTKGPSVFPLAPSSKSTSGGTAALGCLVKDYFPEPVTVSWNSGALTSGVHTFPAVLQSSGLYSLSSVVTVPSSSLGTQTYICNVNHKPSNTKVDKRV[sequence of human IgG1 Fc omitted]
# light: QSVLTQPPSVSAAPGQKVTISCSGSSSNIGNTYVSWYQQLPGTAPKLLIYDNNKRPSGIPDRFSGSKSGTSATLGITGLQTGDEADYYCGTWDSSLSAWVFGGGTRLTVLGQPKAAPSVTLFPPSSEELQANKATLVCLISDFYPGAVTVAWKADSSPVKAGVETTTPSKQSNNKYAASSYLSLTPEQWKSHRSYSCQVTHEGSTVEKTVAPTECS
# Tests used:
# Details in all cases: remark: other sources report otherwise
# [1] = target: JCV VLP (consensus) (JC virus), P03089; assay: SET (solution equilibrium titration) on JCV VLPs
# [2] = target: BKV serotype II VP1 pentamer (BK virus serotype II), P14996; assay: SET (solution equilibrium titration) on VP1 pentamers
# [3] = target: BKV serotype I VP1 pentamer (BK virus serotype I), P03088; assay: as above
# [4] = target: BKV serotype IV VP1 pentamer (BK virus serotype IV), P14996; assay: assay and form of VP1 not given
# [5] = target: BKV serotype II VP1 pentamer (BK virus serotype II), P14996; assay: assay and form of VP1 not given
Binder,Kd [1],Kd [2],Kd [3],fold greater affinity (against NEG447) [4],fold greater affinity (against NEG447) [5]
B1,436 pM,,,,
B2,,9.6 pM,0.9 pM,10 fold,3 fold
